# Test results reported in article PMC5892938.
# Some of the results follow. At the low end of the ranking the order means little.
# Target: GST-SBP-SLBP (stem-loop binding protein) (UniProt Q14493)
# Test: targeted RNA Bind-n-Seq;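 further: DESeq read counts versus GST-SBP nonspecific binding control pulldown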
# Conditions: RBNS binding buffer: 25 mM Tris pH 7.5, 150 mM KCl, 3 mM MgCl2, 0.1% Tween, 0.5 mg/mL BSA, 1 mM DTT; 27 nM protein, 750 pM RNA pool; temperature not stated; high values mean tight binding
row,Sequence,binding signal (log2 fold change)
1,GGUCACGUCUCAAUCAACUCUUCGUCAGGAGUUUUCUCCUGUUAUCUCAACAGCUCGCAGUCAAG,-0.0391
2,GGUCACGUCUCAAUCAACUCAGUCCCCAGGGAAACCCCUGGCUUAUUCAACAGCUCGCAGUCAAG,0.249
3,GGUCACGUCUCAAUCAACUCUAUUUCCAGGGAAAGCCCUGGUAUACUCAACAGCUCGCAGUCAAG,0.091
4,GGUCACGUCUCAAUCAACUCAUUUUCCAGGGAAAGCCCUGGUUUUUUCAACAGCUCGCAGUCAAG,0.0173
5,GGUCACGUCUCAAUCAACUCUACUCCAGGAGUUUACUCCUGCAUACUCAACAGCUCGCAGUCAAG,-0.0679
6,GGUCACGUCUCAAUCAACUCUUUCCCAGGAGUUUACUCCUGCAUAUUCAACAGCUCGCAGUCAAG,0.213
7,GGUCACGUCUCAAUCAACUCAUCGCCAGGAGUUUCCUCCUGCUUAUUCAACAGCUCGCAGUCAAG,0.0374
8,GGUCACGUCUCAAUCAACUCUUCCUCCAGGGAAAACCCUGGCUUAUUCAACAGCUCGCAGUCAAG,-0.046
9,GGUCACGUCUCAAUCAACUCUUCCCCCAGGGAAACCCCUGGUUAUUUCAACAGCUCGCAGUCAAG,-0.103
10,GGUCACGUCUCAAUCAACUCUACUUCAGGAGUUUACUCCUGCUUAUUCAACAGCUCGCAGUCAAG,0.126
11,GGUCACGUCUCAAUCAACUCUAUGGAGGGGGGGAAAACCCCUUUACCCUCAUCCUCAACAGCUCGCAGUCAAG,-0.0435
12,GGUCACGUCUCAAUCAACUCUACUUCCAGGGAAAGCCCUGGUUAUUUCAACAGCUCGCAGUCAAG,0.0781
13,GGUCACGUCUCAAUCAACUCAACUUCCAGGGAAAACCCUGGUUAACUCAACAGCUCGCAGUCAAG,-0.0386
14,GGUCACGUCUCAAUCAACUCUUUCCCAGGAGUUUCCUCCUGUAUACUCAACAGCUCGCAGUCAAG,0.0742
15,GGUCACGUCUCAAUCAACUCAUCAGAGGGGGGGAAAACCCCUUUACCCUCCAAUUCAACAGCUCGCAGUCAAG,0.162
16,GGUCACGUCUCAAUCAACUCAUCGUCAGGAGUUUUCUCCUGUAUACUCAACAGCUCGCAGUCAAG,0.1
17,GGUCACGUCUCAAUCAACUCUUCCUCAGGAGUUUCCUCCUGCAAUCUCAACAGCUCGCAGUCAAG,0.076
18,GGUCACGUCUCAAUCAACUCAAUUUCCAGGGAAACCCCUGGUAUUUUCAACAGCUCGCAGUCAAG,0.0325
19,GGUCACGUCUCAAUCAACUCUUUUUCCAGGGAAAACCCUGGCUUAUUCAACAGCUCGCAGUCAAG,-0.118
20,GGUCACGUCUCAAUCAACUCUAACGAGGGGGGGAAAACCCCUUUACCCUCUAUAUCAACAGCUCGCAGUCAAG,0.308
21,GGUCACGUCUCAAUCAACUCAACUUCAGGAGUUUGCUCCUGCAAUCUCAACAGCUCGCAGUCAAG,0.0527
22,GGUCACGUCUCAAUCAACUCAAUCCCAGGAGUUUGCUCCUGUAAAUUCAACAGCUCGCAGUCAAG,0.15
23,GGUCACGUCUCAAUCAACUCAUCCCCCAGGGAAAGCCCUGGCUAUUUCAACAGCUCGCAGUCAAG,0.248
24,GGUCACGUCUCAAUCAACUCAUUCUCAGGAGUUUUCUCCUGCUAAGUCAACAGCUCGCAGUCAAG,0.13
25,GGUCACGUCUCAAUCAACUCUUCUUCAGGAGUUUUCUCCUGCAAUGUCAACAGCUCGCAGUCAAG,-0.0451

row,Sequence,binding signal (log2 fold change)
1,GGUCACGUCUCAAUCAACUCAUUCCCAGGAGUUUACUCCUGUAUAUUCAACAGCUCGCAGUCAAG,0.0758
2,GGUCACGUCUCAAUCAACUCAUCUCCAGGAGUUUGCUCCUGUAAAUUCAACAGCUCGCAGUCAAG,-0.0701
3,GGUCACGUCUCAAUCAACUCAUCGUCCAGGGAAAACCCUGGUAAUCUCAACAGCUCGCAGUCAAG,0.172
4,GGUCACGUCUCAAUCAACUCAACUCCAGGAGUUUCCUCCUGUUUAUUCAACAGCUCGCAGUCAAG,-0.00726
5,GGUCACGUCUCAAUCAACUCACACGAGGGGGGGAAAACCCCUUUACCCUCAUUCUCAACAGCUCGCAGUCAAG,-5.34e-05
6,GGUCACGUCUCAAUCAACUCAUACGAGGGGGGGAAAACCCCUUUACCCUCAUUCUCAACAGCUCGCAGUCAAG,-0.128
7,GGUCACGUCUCAAUCAACUCAAGUCCAGGAGUUUCCUCCUGCUAAUUCAACAGCUCGCAGUCAAG,-0.089
8,GGUCACGUCUCAAUCAACUCUUCGCCAGGAGUUUUCUCCUGCUUUUUCAACAGCUCGCAGUCAAG,-0.0267
9,GGUCACGUCUCAAUCAACUCUUUUCCAGGAGUUUUCUCCUGCUUUCUCAACAGCUCGCAGUCAAG,-0.018
10,GGUCACGUCUCAAUCAACUCAAUCCCCAGGGAAACCCCUGGCUUAUUCAACAGCUCGCAGUCAAG,0.24
11,GGUCACGUCUCAAUCAACUCUUCGGAGGGGGGGAAAACCCCUUUACCCUCAACCUCAACAGCUCGCAGUCAAG,0.265
12,GGUCACGUCUCAAUCAACUCAAUCCCAGGAGUUUGCUCCUGUAUUCUCAACAGCUCGCAGUCAAG,0.268
13,GGUCACGUCUCAAUCAACUCAUUUCCAGGAGUUUCCUCCUGUUUUCUCAACAGCUCGCAGUCAAG,0.12
14,GGUCACGUCUCAAUCAACUCAAUUCCCAGGGAAACCCCUGGCAUUCUCAACAGCUCGCAGUCAAG,0.24
15,GGUCACGUCUCAAUCAACUCAUCCCCCAGGGAAACCCCUGGCAUAUUCAACAGCUCGCAGUCAAG,-0.0631
16,GGUCACGUCUCAAUCAACUCUAUUUCCAGGGAAAGCCCUGGUAUAUUCAACAGCUCGCAGUCAAG,-0.0286
17,GGUCACGUCUCAAUCAACUCAUUAGAGGGGGGGAAAACCCCUUUGCCCUCAAAAUCAACAGCUCGCAGUCAAG,0.487
18,GGUCACGUCUCAAUCAACUCUAUUCCCAGGGAAAGCCCUGGUUAACUCAACAGCUCGCAGUCAAG,-0.202
19,GGUCACGUCUCAAUCAACUCAUCUUCCAGGGAAAACCCUGGCAAACUCAACAGCUCGCAGUCAAG,-0.00365
20,GGUCACGUCUCAAUCAACUCGUCUUCAGGAGUUUCCUCCUGCUAUUUCAACAGCUCGCAGUCAAG,0.00339
21,GGUCACGUCUCAAUCAACUCUAUCCCCAGGGAAAUCCCUGGUUUUCUCAACAGCUCGCAGUCAAG,-0.141
22,GGUCACGUCUCAAUCAACUCUUCAGAGGGGGGGAAAACCCCUUUGCCCUCAUCAUCAACAGCUCGCAGUCAAG,0.0336
23,GGUCACGUCUCAAUCAACUCUAUCCCCAGGGAAAGCCCUGGCUUUCUCAACAGCUCGCAGUCAAG,0.0525
24,GGUCACGUCUCAAUCAACUCAACUCCCAGGGAAAGCCCUGGUUAAUUCAACAGCUCGCAGUCAAG,0.118
25,GGUCACGUCUCAAUCAACUCUAUUCCCAGGGAAAGCCCUGGCAUUCUCAACAGCUCGCAGUCAAG,0.221

row,Sequence,binding signal (log2 fold change)
1,GGUCACGUCUCAAUCAACUCUUCGUCAGGAGUUUUCUCCUGCUUUUUCAACAGCUCGCAGUCAAG,-0.0628
2,GGUCACGUCUCAAUCAACUCAAUUCCCAGGGAAAACCCUGGCUUUCUCAACAGCUCGCAGUCAAG,0.0802
3,GGUCACGUCUCAAUCAACUCAACUUCAGGAGUUUCCUCCUGCAUUCUCAACAGCUCGCAGUCAAG,0.0115
4,GGUCACGUCUCAAUCAACUCUACUCCCAGGGAAAUCCCUGGUAUUUUCAACAGCUCGCAGUCAAG,0.0643
5,GGUCACGUCUCAAUCAACUCUUUCCCCAGGGAAACCCCUGGCAAUGUCAACAGCUCGCAGUCAAG,0.196
6,GGUCACGUCUCAAUCAACUCAACUUCAGGAGUUUACUCCUGCAAUGUCAACAGCUCGCAGUCAAG,-0.0501
7,GGUCACGUCUCAAUCAACUCAUCGCCAGGAGUUUACUCCUGUUUAUUCAACAGCUCGCAGUCAAG,-0.163
8,GGUCACGUCUCAAUCAACUCUUACGAGGGGGGGAAAACCCCUUUACCCUCAAUAUCAACAGCUCGCAGUCAAG,-0.0458
9,GGUCACGUCUCAAUCAACUCUCUCGAGGGGGGGAAAACCCCUUUACCCUCUUCUUCAACAGCUCGCAGUCAAG,-0.00259
10,GGUCACGUCUCAAUCAACUCUACGGAGGGGGGGAAAACCCCUUUACCCUCAAUAUCAACAGCUCGCAGUCAAG,-0.083
11,GGUCACGUCUCAAUCAACUCCCACGAGGGGGGGAAAACCCCUUUACCCUCUCCAUCAACAGCUCGCAGUCAAG,0.3
12,GGUCACGUCUCAAUCAACUCUUCGUCCAGGGAAACCCCUGGCUUAUUCAACAGCUCGCAGUCAAG,0.045
13,GGUCACGUCUCAAUCAACUCAACGCCAGGAGUUUCCUCCUGCUUAUUCAACAGCUCGCAGUCAAG,0.0567
14,GGUCACGUCUCAAUCAACUCUUCAGAGGGGGGGAAAACCCCUUUACCCUCCAUUUCAACAGCUCGCAGUCAAG,-0.464
15,GGUCACGUCUCAAUCAACUCUUCCCCCAGGGAAAUCCCUGGUUUUCUCAACAGCUCGCAGUCAAG,-0.0537
16,GGUCACGUCUCAAUCAACUCAUUUUCCAGGGAAAGCCCUGGUAAUUUCAACAGCUCGCAGUCAAG,0.0265
17,GGUCACGUCUCAAUCAACUCUUCGCCAGGAGUUUACUCCUGUAAUUUCAACAGCUCGCAGUCAAG,-0.121
18,GGUCACGUCUCAAUCAACUCAUUCUCCAGGGAAAACCCUGGCAAACUCAACAGCUCGCAGUCAAG,-0.0901
19,GGUCACGUCUCAAUCAACUCAUUCUCAGGAGUUUACUCCUGUUUAGUCAACAGCUCGCAGUCAAG,-0.0703
20,GGUCACGUCUCAAUCAACUCUUCGUCCAGGGAAAGCCCUGGUUAUCUCAACAGCUCGCAGUCAAG,0.0586
21,GGUCACGUCUCAAUCAACUCCUCAGAGGGGGGGAAAACCCCUUUACCCUCAUUAUCAACAGCUCGCAGUCAAG,0.4
22,GGUCACGUCUCAAUCAACUCUUCCCCCAGGGAAAGCCCUGGUAUUUUCAACAGCUCGCAGUCAAG,-0.0216
23,GGUCACGUCUCAAUCAACUCAUCCUCAGGAGUUUUCUCCUGCUUUGUCAACAGCUCGCAGUCAAG,0.0608
24,GGUCACGUCUCAAUCAACUCAAUUUCAGGAGUUUUCUCCUGCUUUCUCAACAGCUCGCAGUCAAG,0.0195
